Experimental data: patent publication US9493440B2, “Compounds inhibiting leucine-rich repeat kinase enzyme activity” (Merck Sharp & Dohme Corp., priority 2013, dated 2016)

Biological target: LRRK2(G2019S mutation, GST-LRRK2(amino acids 970-2527)) (Homo sapiens (Human), UniProt Q5S007, G2019S)
Test: LRRK2 Km ATP LanthaScreen Assay
Settings: read-out: LRRK2 IC50; Km ATP LanthaScreen Assay, mean IC50

| SMILES | IC50 [nM] |
| --- | --- |
| CC1(Oc2cc3c(-c4cc(N5CC[C@H](CO)C5)ncn4)n[nH]c3cc2F)CC1 [Example 167] | 1.1 |
| CC1(Oc2cc3c(-c4cc(N5CCN(CCCO)CC5)ncn4)n[nH]c3cc2F)CC1 [Example 182] | 1.6 |
| CC1(C)CN(c2cc(-c3n[nH]c4cc(F)c(OC5(C)CC5)cc34)ncn2)CCO1 [Example 190] | 1.5 |
| CCN1CCN(c2cc(-c3n[nH]c4ccc(OC5(C)CC5)cc34)ncn2)CC1 [Example 126] | 1.9 |
| CCC1(Oc2ccc3[nH]nc(-c4cc(N5CC6CCC(C5)O6)ncn4)c3c2)COC1 [Example 198] | 2.8 |
| COCCN1CCN(c2cc(-c3n[nH]c4ccc(OC5(C)CC5)cc34)ncn2)CC1=O [Example 20] | 1.01 |
| COCC1CN(c2cc(-c3n[nH]c4cc(F)c(OC5(C)CC5)cc34)ncn2)CCO1 (stereo not shown) [Example 171] | 1.6 |
| CC1(Oc2ccc3[nH]nc(-c4cc(N5CCN(C(=O)C6CCCO6)CC5)ncn4)c3c2)CC1 (stereo not shown) [Example 49] | 3 |
| COCC(C)N1CCN(c2cc(-c3n[nH]c4ccc(OC5(C)CC5)cc34)ncn2)C[C@H]1C (stereo partly shown) [Example 139] | 0.6 |
| CC1COCCN1c1cc(-c2n[nH]c3ccc(OC4(C)CC4)cc23)ncn1 (stereo not shown) [Example 13] | 2.29 |
| CCC1(Oc2ccc3[nH]nc(-c4cc(N5CCN(S(C)(=O)=O)CC5)ncn4)c3c2)CC1 [Example 219] | 0.67 |
| C[C@H]1C[C@@H](N)CN1c1cc(-c2n[nH]c3cc(F)c(OC4(C)CC4)cc23)ncn1 [Example 205] | 1.29 |
| CC1(Oc2cc3c(-c4cc(N5CCN(C(=O)CO)CC5)ncn4)n[nH]c3cc2F)CC1 [Example 179] | 1.6 |
| CC1(Oc2cc3c(-c4cc(N5CC[S+]([O-])CC5)ncn4)n[nH]c3cc2F)CC1 [Example 170] | 0.6 |
| COC(=O)N1CCN(c2cc(-c3n[nH]c4ccc(OC5(C)CC5)cc34)ncn2)CC1 [Example 76] | 2.4 |
| C[C@@H]1CN(c2cc(-c3n[nH]c4ccc(OC5(C)CC5)cc34)ncn2)CCN1C [Example 16] | < 0.6 |
| CC1(Oc2ccc3[nH]nc(-c4cc(N5CC(N6CCOCC6)C5)ncn4)c3c2)CC1 [Example 77] | 6.4 |
| CC(C(F)F)N1CCN(c2cc(-c3n[nH]c4ccc(OC5(C)CC5)cc34)ncn2)CC1 (stereo not shown) [Example 124] | 0.9 |
| CC1(Oc2ccc3[nH]nc(-c4cc(N5C6CCC5COC6)ncn4)c3c2)CC1 [Example 103] | 2.2 |
| CC1(Oc2ccc3[nH]nc(-c4cc(N5CCN(Cc6ccncc6)CC5)ncn4)c3c2)CC1 [Example 81] | 2.1 |
| CC1(Oc2ccc3[nH]nc(-c4cc(N5CCN6CCCC6C5)ncn4)c3c2)CC1 (stereo not shown) [Example 73] | 1.9 |
| CC1(Oc2ccc3[nH]nc(-c4cc(N5CC(S(C)(=O)=O)C5)ncn4)c3c2)CC1 [Example 5] | 2.15 |
| CC1(Oc2cc3c(-c4cc(N5CCOCC5)ncn4)n[nH]c3cc2F)CC1 [Example 149] | 0.71 |
| CC1(Oc2cc3c(-c4cc(N5CCC(F)(C#N)CC5)ncn4)n[nH]c3cc2F)CC1 [Example 189] | 1.1 |
| CC1(Oc2cc3c(-c4cc(N5CCN(c6ccncn6)CC5)ncn4)n[nH]c3cc2F)CC1 [Example 181] | 3 |
| Cc1nc2c(o1)CCN(c1cc(-c3n[nH]c4ccc(OC5(C)CC5)cc34)ncn1)C2 [Example 86] | 3.1 |
| C[C@@H]1CN(c2cc(-c3n[nH]c4ccc(OC5(C)CC5)cc34)ncn2)CCN1CCC(F)(F)F [Example 143] | 0.9 |

| SMILES | IC50 [nM] |
| --- | --- |
| CCC1(Oc2ccc3[nH]nc(-c4cc(N5CCN(C)CC5)ncn4)c3c2)CC1 [Example 218] | 1.49 |
| CC1(Oc2ccc3[nH]nc(-c4cc(N5CCC(n6ccnc6)C5)ncn4)c3c2)CC1 (stereo not shown) [Example 78] | 2.6 |
| CCN(CC)c1cc(-c2n[nH]c3ccc(OC4(C)CC4)cc23)ncn1 [Example 72] | 18.3 |
| C[C@@H]1CN(c2cc(-c3n[nH]c4cc(F)c(OC5(C)CC5)cc34)ncn2)CCO1 [Example 151] | < 0.6 |
| CC1(Oc2ccc3[nH]nc(-c4cc(NC5CCOCC5)ncn4)c3c2)CC1 [Example 236] | 1.71 |
| C[C@H]1CN(c2cc(-c3n[nH]c4ccc(OC5(C)CC5)cc34)ncn2)CCN1S(C)(=O)=O [Example U2] | 1.18 |
| CC(C1CCC1)N1CCN(c2cc(-c3n[nH]c4ccc(OC5(C)CC5)cc34)ncn2)CC1 (stereo not shown) [Example 123] | 1.1 |
| CC1(Oc2ccc3[nH]nc(-c4cc(NCCO)ncn4)c3c2)CC1 [Example 90] | 6.3 |
| CN(C)[C@H]1CCN(c2cc(-c3n[nH]c4cc(F)c(OC5(C)CC5)cc34)ncn2)C1 [Example 183] | 2 |
| CC1(Oc2ccc3[nH]nc(-c4cc(N5CCN(c6nnc(C7CC7)o6)CC5)ncn4)c3c2)CC1 [Example 65] | 4.1 |
| CO[C@H]1CN(c2cc(-c3n[nH]c4ccc(OC5(C)CC5)cc34)ncn2)C[C@@H]1O [Example 54] | 4.6 |
| CC1(Oc2ccc3[nH]nc(-c4cc(N5CCN(c6ccncn6)CC5)ncn4)c3c2)CC1 [Example 68] | 3 |
| CN1CCN(c2cc(-c3n[nH]c4cc(F)c(OC5(C)CC5)cc34)ncn2)CC1=O [Example 156] | < 0.6 |
| COCCN(C)c1cc(-c2n[nH]c3ccc(OC4(C)CC4)cc23)ncn1 [Example 14] | 4.44 |
| C[C@H]1COCCN1c1cc(-c2n[nH]c3ccc(OC4(C)CC4)cc23)ncn1 [Example 117] | 2.2 |
| CC1CN(C)CCN1c1cc(-c2n[nH]c3ccc(OC4(C)CC4)cc23)ncn1 (stereo not shown) [Example 35] | 1.03 |
| COCC(=O)N1CCN(c2cc(-c3n[nH]c4cc(F)c(OC5(C)CC5)cc34)ncn2)CC1 [Example 195] | 0.8 |
| CC1(Oc2ccc3[nH]nc(-c4cc(N5CCCCC5)ncn4)c3c2)CC1 [Example 44] | 3.1 |
| CCS(=O)(=O)N1CCN(c2cc(-c3n[nH]c4ccc(OC5(C)CC5)cc34)ncn2)CC1 [Example 33] | 0.63 |
| C[C@@H]1CN(c2cc(-c3n[nH]c4ccc(O[C@H]5CCOC5)cc34)ncn2)C[C@H](C)O1 [Example 164] | 6.86 |
| CC1(Oc2ccc3[nH]nc(-c4cc(N5Cc6nnc(C(F)(F)F)n6C(C)(C)C5)ncn4)c3c2)CC1 [Example 102] | 5.5 |
| CCC(=O)N1CCN(c2cc(-c3n[nH]c4ccc(OC5(C)CC5)cc34)ncn2)CC1 [Example 41] | 0.87 |
| CC1(Oc2ccc3[nH]nc(-c4cc(N5CCN(c6cc(C(C)(C)O)ccn6)CC5)ncn4)c3c2)CC1 [Example 147] | 1.5 |
| CC1(Oc2cc3c(-c4cc(N5CCN(CCF)CC5)ncn4)n[nH]c3cc2F)CC1 [Example 159] | 0.67 |
| C[C@@H]1CN(c2cc(-c3n[nH]c4ccc(OC5(C)CC5)cc34)ncn2)CCN1Cc1cocn1 [Example 136] | 0.7 |
| CCCN1CCN(c2cc(-c3n[nH]c4ccc(OC5(C)CC5)cc34)ncn2)CC1=O [Example 223] | 1.04 |
| CC1(Oc2ccc3[nH]nc(-c4cc(N5CC(O)(C(F)(F)F)C5)ncn4)c3c2)CC1 [Example 59] | 3.3 |

| SMILES | IC50 [nM] |
| --- | --- |
| CCC1(Oc2ccc3[nH]nc(-c4cc(N5C[C@H](O)[C@@H](O)[C@@H]5C)ncn4)c3c2)CC1 [Example 217] | 1.63 |
| CC(C)N1CCN(c2cc(-c3n[nH]c4ccc(OC5(C)CC5)cc34)ncn2)C[C@H]1C [Example 144] | 0.8 |
| CC1(Oc2ccc3[nH]nc(-c4cc(N5CCN(S(=O)(=O)C6CC6)CC5)ncn4)c3c2)CC1 [Example 34] | 0.99 |
| CC1(Oc2ccc3[nH]nc(-c4cc(N5CCC(F)(CO)CC5)ncn4)c3c2)CC1 [Example 87] | 1.9 |
| Cc1nc2c(o1)CCN(c1cc(-c3n[nH]c4cc(F)c(OC5(C)CC5)cc34)ncn1)C2 [Example 173] | 2.1 |
| CO[C@H]1CCN(c2cc(-c3n[nH]c4ccc(OC5(C)CC5)cc34)ncn2)C1 [Example 12] | 1.42 |
| CC1(Oc2ccc3[nH]nc(-c4cc(N5CCN(CCF)CC5)ncn4)c3c2)CC1 [Example 230] | 0.45 |
| COCCNc1cc(-c2n[nH]c3ccc(OC4(C)CC4)cc23)ncn1 [Example 89] | 4.2 |
| CN1C2CCC1CN(c1cc(-c3n[nH]c4ccc(OC5(C)CC5)cc34)ncn1)C2 [Example 235] | 4.44 |
| CC1(Oc2cc3c(-c4cc(N5CCC(F)(F)C5)ncn4)n[nH]c3cc2F)CC1 [Example 172] | 0.9 |
| CCC1(Oc2ccc3[nH]nc(-c4cc(N5CCOCC5)ncn4)c3c2)CC1 [Example 208] | 0.95 |
| CC1(Oc2ccc3[nH]nc(-c4cc(N5CCN(CCC(F)(F)F)CC5)ncn4)c3c2)CC1 [Example 127] | 1 |
| CC1(C)CN(c2cc(-c3n[nH]c4ccc(OC5(C)CC5)cc34)ncn2)CC(C)(C)O1 [Example 112] | 6.8 |
| C[C@@H]1COCCN1c1cc(-c2n[nH]c3ccc(OC4(C)CC4)cc23)ncn1 [Example 116] | 3.3 |
| CC1c2nc(C(F)(F)F)nn2CCN1c1cc(-c2n[nH]c3cc(F)c(OC4(C)CC4)cc23)ncn1 (stereo not shown) [Example 193] | 16.8 |
| C[C@H]1[C@H](N)[C@@H](O)CN1c1cc(-c2n[nH]c3ccc(OC4(C)CC4)cc23)ncn1 [Example 222] | 2.33 |
| CC1(Oc2ccc3[nH]nc(-c4cc(N5CCN(c6cnc(C#N)cn6)CC5)ncn4)c3c2)CC1 [Example 146] | 1.8 |
| C[C@@H]1COC[C@@H](C)N1c1cc(-c2n[nH]c3cc(F)c(OC4(C)CC4)cc23)ncn1 [Example 191] | 13 |
| CC1(Oc2ccc3[nH]nc(-c4cc(N5CC[C@@H](N)C5)ncn4)c3c2)CC1 [Example 21] | 1.99 |
| CCOC(=O)N1CCN(c2cc(-c3n[nH]c4cc(F)c(OC5(C)CC5)cc34)ncn2)CC1 [Example 184] | 3.9 |
| CC1(Oc2ccc3[nH]nc(-c4cc(N5CCN(c6ncns6)CC5)ncn4)c3c2)CC1 [Example 145] | 1.5 |
| CC1C2CCCN2CCN1c1cc(-c2n[nH]c3ccc(OC4(C)CC4)cc23)ncn1 (stereo not shown) [Example 110] | 2.8 |
| Cc1noc(C2CN(c3cc(-c4n[nH]c5ccc(OC6(C)CC6)cc45)ncn3)C2)n1 [Example 66] | 3 |
| C[C@@H]1CN(c2cc(-c3n[nH]c4ccc(OC5CCOCC5)cc34)ncn2)C[C@H](C)O1 [Example V1] | 24 |
| CC(C)N1CCN(c2cc(-c3n[nH]c4ccc(OC5(C)CC5)cc34)ncn2)CC1=O [Example 18] | 1.5 |
